Measurements taken from the supplement of paper PMC3334620.
In all, about 33,000 sequences were measured (“E-score (-0.5 to 0.5)”: median about -0.056, highest 2% from about 0.38 on). The list shows a part of the results.

Target: Stb4 (UniProt P50104)
Test: PBM E-score (8-mer binding enrichment) (E-score (-0.5 to 0.5)); higher = stronger / more preferred TF binding; most listed sequences are background and not binding sites
Conditions: protein concentration: 200 nM; construct: GST-DNA-binding domain
In short: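 Yeast transcription factors, full-length or as DNA-binding domains, were expressed with a GST tag using PURExpress in vitro transcription/translation. At about 100-200 nM they were applied to universal all-10-mer Agilent arrays, double-stranded by primer extension on fresh or once-stripped slides. Fluorescent anti-GST detected bound protein, and masliner normalised the scans. E-scores for ungapped eight-base words, pooled with reverse complements, came from the Universal PBM Analysis Suite.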

Sequence | PBM E-score
AAAGCAGC | -0.119
CTCATCGA | -0.0597
ATGAACAG | -0.0564
ACTGACAG | -0.0505
CAGGCGTC | -0.216
CCATAATC | -0.118
AGGCTGAC | -0.119
ATGCCGTG | 0.00847
AAGCTAGC | -0.132
ACGAGAGT | -0.174
CAATCGAC | -0.235
AGGTTTCC | -0.0733
AGCTTAGC | -0.165
AAAGCTGA | -0.0624
GTTATTTA | 0.111
ATGAATAG | 0.00085
AGAGGAAC | -0.149
CTCCTCCA | -0.31
CCCTTAGG | -0.297
GTGAAAAA | 0.152
AGCGTTAG | -0.166
AGATCTAA | -0.203
AGAGTGCG | -0.164
GCCCGTAA | 0.0313
CAGAGAAG | -0.0211

Sequence | PBM E-score
GGAATAGA | 0.126
AAGGGTAT | 0.0918
GAAGTTGA | -0.085
CGACCGAA | 0.274
CCAAGTCG | -0.0205
GCAGATAA | 0.0884
AATTATGA | 0.0422
CGGAGACG | 0.235
CGCCACTA | -0.194
CGAACTGA | 0.0902
GAACTCCA | -0.178
TCCACAGA | -0.15
CGCCTAAG | -0.13
ATCGTGCG | -0.0188
GCCGCTGA | 0.107
AATGCTGA | -0.268
GTATAAGA | -0.162
GACCCTCA | -0.162
ATATACGC | -0.2
CGAAGTCC | 0.213
TGCCCGCA | -0.0283
AGCTTACG | -0.213
CCCACCTC | -0.102
GAGACAGC | -0.0706
GCCAGACA | -0.00042

Sequence | PBM E-score
AGTGCTGG | -0.295
ATACCGGG | 0.256
CTACTGAC | -0.0845
GGTGTCAC | 0.153
AGGCGAGG | -0.143
ACAAACTG | -0.225
ATGTTATC | 0.0348
CGGGAAGA | 0.401
ATTCTCTG | -0.242
AGTTATCA | -0.149
CGCCTCCG | 0.206
GAGCTATA | -0.147
AGAACTAT | -0.037
TGTATCAA | -0.135
ACCCGAGC | 0.468
ATTACGGG | 0.0786
AGTTGTAT | -0.128
TAAGATCA | -0.0709
GAATATGC | 0.0994
GCAAGCCA | -0.0993
GAGCGTTA | -0.128
CTACGGAC | -0.0122
GATACGGA | 0.297
ATTGGCAC | -0.123
AGACACCA | -0.0518

Sequence | PBM E-score
CCTGTTGA | -0.26
AGAGTACA | -0.0793
ACCCCGCA | -0.0929
AAAAACAG | -0.183
AGGCAAAT | 0.0165
AGCAATAA | -0.0891
GACTTGCA | 0.0343
AACGGAAC | 0.348
TCGACCCA | -0.208
ATGCATGC | -0.269
AGATCGCT | -0.026
ATTCAAAT | -0.0949
CTCGCTAA | -0.0851
AGTGCCTC | -0.0719
CGCGATAG | -0.06
AACAGCCC | 0.00917
ATCGTACG | -0.0566
AAACGCAC | -0.0375
GAGAACTC | -0.0488
GACACTAA | -0.0556
AAGATCAA | -0.079
GATCTCAC | -0.0444
CCGACTAA | 0.29
TCTCGTCA | -0.0473
ATCTATGC | -0.115

Sequence | PBM E-score
GTTGCAAA | -0.0177
AATTAATC | -0.157
AATAGCCA | -0.214
CTGCATGC | -0.0844
AGGGTCTC | -0.19
CTCCGCGC | 0.168
GAGGCAAC | -0.0361
GTTGGTAA | -0.131
ACGTCCAA | -0.167
TCCACCGA | 0.131
CGCTGCTA | 0.0515
AAGGGATG | -0.185
CGTGGAGA | -0.148
ATGAGCGG | 0.077
GGCTTAAC | -0.0396
ACGATTCG | 0.182
CCCAGGTA | -0.309
CCCCTCGA | -0.0442
CAATGGGC | -0.149
GCTTATAC | -0.141
AGAGAGTA | -0.182
TCTGGAAA | -0.196
ACTGCGGG | 0.116
ATCAGACG | -0.0153
AGTCGTAC | -0.158

Sequence | PBM E-score
ATCCTCGG | 0.417
TGGAGCAA | -0.141
AGAATAGC | -0.102
ACGAGGGG | -0.168
GCGTTGAC | -0.201
CCCAATAA | -0.163
TACTGCTA | -0.053
AGGGCCCT | -0.163
ATCTGCTC | -0.0491
AAACACAT | -0.2
GCAGGTTA | 0.0294
AAATGACT | -0.252
CGTGTGCA | -0.135
AAACGCGC | -0.0415
CACCCGTC | 0.166
CAAGTGGG | -0.0904
ACTCACTG | -0.0866
AAGTGTAA | -0.102
CAACGGCC | 0.0109
AACAACAA | -0.0268
AAAGTCAT | -0.181
AGCCATTG | -0.276
CACGAGGG | -0.0631
AGGACTAA | -0.00406
AGATCCAC | 0.149

Sequence | PBM E-score
GAGCGGAA | 0.343
AATGTGAC | -0.24
ACAGGTAG | -0.272
AGCAAGGA | -0.273
AGAGTAAT | 0.0305
TCATTGCA | -0.328
GAACTCGC | -0.0568
TCTCAACA | -0.169
CCCGCGCC | 0.242
AATTAGCG | 0.0963
AGAACGTA | -0.155
AGTAGCCG | 0.31
ACTTCCAG | -0.0725
CAATGCGA | -0.164
CGCCCAAC | -0.0225
ACCGCTGG | -0.144
AGGGACAG | -0.206
CCACCCCG | 0.208
CCTCAAAC | -0.0597
CTAGCTCC | 0.0436
AGGTCCGA | 0.304
ACTCTTCT | -0.166
